Assay results published in article PMC13193388, “Dimerization‐dependent NOTCH receptor transactivation unveils a class of highly selective NOTCH signalling inhibitors” (The Febs Journal, 2025).

Molecular target: the molecule itself
Assay: SEC-MALS; purified N3 ECD; Superdex 200 10/30 GL; 38 mM NaH2PO4, 12 mM Na2HPO4, 150 mM NaCl, 200 ppm NaN3, pH 7.4; autosampler at 4 °C

B1: purified recombinant HIS epitope-tagged NOTCH3 extracellular domain (domain or fragment)
chain: not shown
modifications: glycosylated
notes: NOTCH3, human, complete extracellular domain; written as one chain so that the self-association rows stand for chain with chain; also called N3 ECD; NOTCH3-ECD protein; source: PEC.3.30 (modified Per.E2A) cells, purified from supernatant (HisTrap HP, Superdex 200); not shown: HIS, C-terminal, kept
stoichiometry N: 2
